Results from article PMC6919601, “Identification of Plasmodium dipeptidyl aminopeptidase allosteric inhibitors by high throughput screening” (PLoS ONE, 2019).
Screen size: about 110,000 compounds; about 230 (0.21%) showed an effect of 50% or more. Some of the results follow.

Target: DPAP1 (Plasmodium falciparum, UniProt Q8IIJ9)
Experiment: primary screen, percent inhibition; read by cleavage of a fluorogenic dipeptide substrate; higher = more effect of the substance
Set-up: species or system P. falciparum D10 trophozoite lysates; single well
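Further: 30 min substrate incubation versus DMSO and 10 µM JCP410 controls.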

Chain of DPAP1 (Q8IIJ9 whole entry, looked up): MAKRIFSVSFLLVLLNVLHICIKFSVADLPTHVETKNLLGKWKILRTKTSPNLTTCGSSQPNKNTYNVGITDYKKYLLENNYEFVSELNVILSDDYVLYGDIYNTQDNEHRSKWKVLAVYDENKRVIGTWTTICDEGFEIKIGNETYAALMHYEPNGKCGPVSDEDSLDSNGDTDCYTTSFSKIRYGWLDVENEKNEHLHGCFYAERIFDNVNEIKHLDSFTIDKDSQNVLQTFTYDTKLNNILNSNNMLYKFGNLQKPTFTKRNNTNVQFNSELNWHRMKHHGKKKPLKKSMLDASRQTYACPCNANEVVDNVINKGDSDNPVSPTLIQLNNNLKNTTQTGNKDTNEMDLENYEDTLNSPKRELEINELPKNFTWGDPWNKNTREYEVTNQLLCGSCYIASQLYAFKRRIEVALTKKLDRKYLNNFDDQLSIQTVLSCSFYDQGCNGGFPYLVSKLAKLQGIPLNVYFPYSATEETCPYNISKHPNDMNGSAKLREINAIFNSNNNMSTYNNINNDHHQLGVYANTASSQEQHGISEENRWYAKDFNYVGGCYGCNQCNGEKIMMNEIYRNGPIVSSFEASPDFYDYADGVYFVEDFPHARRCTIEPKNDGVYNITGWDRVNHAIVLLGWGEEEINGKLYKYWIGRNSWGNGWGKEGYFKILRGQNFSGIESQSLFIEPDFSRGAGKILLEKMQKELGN

Row | Compound | % Inhibition @ 10 uM [%]
1 | O=C(c1ccccc1)c1ccc2[nH]c(-c3cccc(NC(=O)C4CCCO4)c3)nc2c1 (stereo not drawn) | 3.29
2 | COc1cc(NCc2ccsc2)cc(OC)c1 | 3.48
3 | Cc1cccc(OCC(=O)Nc2cc(Cl)ccc2C)c1 | -3.26
4 | Cc1ccc(CN2CCCC(C(=O)N3CCCCCC3)C2)cc1 (stereo not drawn) | 0.565
5 | Cn1nnc2c(sc3nc(N4CCOCC4)c4c(c32)CCCC4)c1=O | 3.47
6 | CN1CCCN(Cc2cc(Br)cs2)CC1 | -5.57
7 | CCOC(=O)C1=C(C)N(c2ccc(OC)cc2)C(=O)/C1=C\c1ccco1 | -3.14
8 | CCn1c(CN2CCCCC2)nc2ccccc21 | 3.66
9 | O=C(c1ccccc1)c1ccc(N2CCOCC2)c(F)c1 | 3.44
10 | Cc1ccc(CNC(=O)CNS(=O)(=O)c2ccc(Br)s2)cc1 | 5.1
11 | COc1ccccc1C(=O)N1N=C(C)CC1(O)C(F)(F)F (stereo not drawn) | -13.3
12 | O=C1NC(=S)S/C1=C\C=C\c1ccccc1 | -0.828
13 | COc1ccccc1/C=C/CN1CCC(C)CC1 | -3.27
14 | O=C(COc1ccc2ccccc2c1)Nc1ccccc1C(=O)Nc1ccccc1 | 4.3
15 | O=C(CC12CC3CC(CC(C3)C1)C2)NCC(=O)N1CCCC1 | -2.46
16 | COc1ccc(-n2c(C)nc(=O)c(-c3ccccc3)c2C)cc1 | 1.4
17 | Oc1nc(SC/C=C/c2ccccc2)nc2ccccc12 | 6.4
18 | COc1ccc(CN2CCN(Cc3cccc4ccccc34)CC2)c(OC)c1 | 7.1
19 | Cc1c(CNC(=O)c2nn3c(C(F)(F)F)cc(-c4cccs4)nc3c2Cl)cnn1C | 5.66
20 | Cc1cccc(-c2nc(CSCC(=O)N3CCC(Cc4ccccc4)CC3)c(C)o2)c1 | -1.05
21 | COc1cc(OC)cc(C(=O)Nc2cccc(NC(=O)c3cc(OC)cc(OC)c3)n2)c1 | -2.32
22 | CCN(CC)CCNC(=O)C1c2ccccc2C(=O)N(C)C1c1cn(C)c2ccccc12 (stereo not drawn) | 4.63
23 | CS(=O)(=O)N(CC(=O)N1CCCC1)Cc1ccccc1 | -7.32
24 | Cc1ccccc1C(=O)Nc1ccc(C(C)C)cc1 | 0.247
25 | CC(C)(C)c1ccc(C(=O)NC2(C(F)(F)F)C(=O)N(Cc3ccccc3)C3=C2C(=O)CCC3)cc1 (stereo not drawn) | 0.221
26 | Cc1ccc(/C=C2\N=C(c3ccc(F)cc3)OC2=O)o1 | -0.617

Row | Compound | % Inhibition @ 10 uM [%]
27 | Fc1ccc(CN2CCN(c3ccc(Cl)cc3)CC2)c(F)c1 | 0.708
28 | C=CCNc1nc(Cl)nc(N(c2ccccc2)c2ccccc2)n1 | 4.98
29 | Cc1ccc(-n2c(S)nnc2-c2cccs2)c(C)c1 | 0.193
30 | CC(=O)OC1CCC2(NC(=O)c3ccccc3)CSC1C2OC(C)=O (stereo not drawn) | -0.216
31 | CC(=O)Nc1sc2c(c1C(=O)O)CCc1ccccc1-2 | 6.37
32 | CC1CCN(C2CC(=O)N(c3cc(Cl)cc(Cl)c3)C2=O)CC1 (stereo not drawn) | -4.82
33 | Cc1ccc(-c2[nH]nc3c2C(c2ccc(OCC(N)=O)cc2)C(C#N)=C(N)O3)cc1C (stereo not drawn) | 1.43
34 | COc1ccc2[nH]c3c(=O)n(Cc4ccc(C(=O)NC5CC5)cc4)c(=S)[nH]c3c2c1 | 4.28
35 | COc1ccccc1C1=NOC(Cn2c(NCc3ccccc3)nc3c2c(=O)n(C)c(=O)n3C)C1 (stereo not drawn) | -1.72
36 | O=C(CN(c1ccc(F)cc1)S(=O)(=O)c1ccccc1)Nc1ccccc1Cl | -8.78
37 | O=C(NCc1ccccc1)c1cc(-c2ccc(O)cc2)on1 | -1.96
38 | Cc1cccc(NC(=O)C2c3ccccc3C(=O)N(C)C2c2cccs2)n1 (stereo not drawn) | -3.27
39 | Cc1cc(C)c2c3c1C1C=CCC1CN3C(C(=O)O)C1CC=CC21 (stereo not drawn) | 3.65
40 | CCCNC(=O)c1cc(-c2ccc(OC)c(OC)c2)nc2ccccc12 | -5.14
41 | CN(C)CCCN(C(=O)c1cc2ccccc2oc1=O)c1nc2ccc(F)cc2s1 | 4.2
42 | CCOc1cc(/C=N/n2cnnc2)ccc1O | 7.75
43 | Cc1cc(C)c2nc(N3CCCC(C(=O)NCCN4CCCCC4C)C3)sc2c1 (stereo not drawn) | 1.8
44 | O=C1C2C3C=CC(C3)C2C(=O)N1c1cccc2ccccc12 (stereo not drawn) | -5.07
45 | CC1CCCCN1CCCNc1nc2ccccc2c2nc(-c3cccnc3)nn12 (stereo not drawn) | -6.07
46 | CC(CCc1ccco1)NC(=O)Nc1cn(C)c(=O)c2ccccc12 (stereo not drawn) | -4.33
47 | N#CC1=C(SCC(=O)c2cc3ccccc3oc2=O)NC(=O)C(C#N)C12CCCC2 (stereo not drawn) | 31.6
48 | CCNC(=O)C1CCCN1S(=O)(=O)c1ccc(C)cc1 (stereo not drawn) | -1.11
49 | OC1CCN(CC(O)CC(O)(c2ccc(F)cc2)c2ccc(F)cc2)CC1 (stereo not drawn) | -7.06
50 | N#Cc1cc2c(nc1SCc1cccnc1)CCCCC2 | 1.03
51 | COc1ccc(CN2CCN(c3ccccn3)CC2)cc1 | -1.77
52 | CCc1ccc(S(=O)(=O)NCc2ccccn2)cc1 | 4.1

Row | Compound | % Inhibition @ 10 uM [%]
53 | C=CCOc1ccc(CNCc2ccccc2Cl)cc1OC | -0.545
54 | Cc1ccc(Cl)cc1/N=C1\SC(CC(=O)Nc2ccc(C(=O)O)cc2)C(=O)N1C (stereo not drawn) | -1.17
55 | CC(=O)Nc1ccc(C(=O)Nc2cccc(Cl)c2)cc1 | 0.317
56 | CCOc1cc(C2C(C#N)=C(N)Oc3[nH]nc(-c4cccnc4)c32)ccc1O (stereo not drawn) | -4.41
57 | CS(=O)(=O)Nc1ccc(C(=O)c2ccccc2)cc1 | 0.907
58 | CCOc1ccc(/C=C/C(=O)c2ccc(OCC)cc2)cc1 | 2.45
59 | Cc1ccc(NC(=O)Nc2nc3ccc(S(C)(=O)=O)cc3s2)cc1 | 3.05
60 | COc1ccc(-n2c(O)cc(=O)nc2SC)cc1 | 1.38
61 | CC(=O)c1cccc(N2C(=O)c3cccnc3C2=O)c1 | -2.8
62 | Cc1c(C(=O)NCc2cccc(F)c2)oc2ccc3c(c12)C(O)CC1(CCCCC1)O3 (stereo not drawn) | -3.47
63 | O=C(Cc1cccc2ccccc12)Nc1nccs1 | -1.38
64 | CC(C)Cn1cc(NC(=O)N2CCC(Cc3ccccc3)CC2)c2ccccc2c1=O | -11.9
65 | CCCC(=O)n1nc2c3c(cccc31)C(=O)c1ccccc1-2 | -2.75
66 | O=C(N/C(=C\c1ccccc1)C(=O)N1CCCCC1)c1cccc(Br)c1 | -4.48
67 | C=CCNc1nc(OC(C(F)(F)F)C(F)(F)F)nc(N(c2ccccc2)c2ccccc2)n1 | -1.76
68 | Cc1c(CCC(=O)O)c(O)nc2ccccc12 | 4.32
69 | CC(C(=O)NC1CCCCCC1)n1c2ccccc2c2cnn(C)c(=O)c21 (stereo not drawn) | 3
70 | N#C/C(=C\c1c(Cl)cccc1Cl)c1ccccc1 | 13
71 | COCc1c(Br)c(C)nc2sc3c(O)nnnc3c12 | 3.94
72 | CCc1ccc([N+]2=C3CCCCN3C(O)(c3ccc(F)cc3)C2)cc1 (stereo not drawn) | -1.44
73 | COc1cccc(OCCCCN2CCC(C)CC2)c1 | 3.87
74 | CCOc1ccc(N(CC(=O)NC2CC3CCC2C3)S(=O)(=O)c2ccc(C)cc2)cc1 (stereo not drawn) | 3.85
75 | CC1CCN(C(=O)/C(=C\C=C/c2ccccc2)NC(=O)c2ccccc2)CC1 | 5.98
76 | COc1ccc(C(=O)N2CCN(C/C=C/c3ccccc3)CC2)cc1 | -1.38
77 | CCOC(=O)c1cc(S(=O)(=O)NCc2ccc(OC)cc2)cn1C | 2.32
78 | COc1ccc(CNC(=S)Nc2ccccc2)cc1Cl | -5.78

Row | Compound | % Inhibition @ 10 uM [%]
79 | OCC1CCCN(Cc2cccc(Br)c2)C1 (stereo not drawn) | -4.4
80 | Cc1ccc(CN2C(=O)c3nccnc3C2=O)cc1 | 0.66
81 | O=C1c2oc3ccccc3c(=O)c2C(c2ccccc2F)N1c1nccs1 (stereo not drawn) | -0.828
82 | CCOC(=O)c1c(NC(=O)C(=O)c2c[nH]c3ccccc23)sc2c1CCCC2 | 0.561
83 | COc1ccccc1NC(=O)c1ccc(Cn2nc(C)cc2C)o1 | 5.53
84 | O=C(O)/C=C\C(=O)N1CCN(c2ccc([N+](=O)[O-])cc2)CC1 | -2.7
85 | CCCNC(=O)N(C)Cc1nc(-c2ccc(C)cc2)no1 | 3.27
86 | CCCOc1ccc(C(=O)C2=C(O)C(=O)N(CCN3CCOCC3)C2c2ccc(OC)cc2)c(C)c1 (stereo not drawn) | 1.52
87 | OCC1CCCN(Cc2ccc(F)cc2)C1 (stereo not drawn) | 0.827
88 | CCOc1cc(/C=C/C(=O)O)ccc1OCc1ccc(Br)cc1 | -3.98
89 | COc1ccc(/C=C(\C#N)c2nc3cc(C)ccc3[nH]2)cc1 | 2.45
90 | COc1cccc(C(=O)N2CCN(c3ccccc3F)CC2)c1OC | -9.45
91 | Cc1ccc(NC(=O)CN2CCN(CC(=O)Nc3ccc(C)cc3)CC2)cc1 | -4.39
92 | CCNC(=O)c1nn(C)c2c1CS(=O)(=O)c1ccccc1-2 | 3.98
93 | CC(C)N(C)CC#CC(O)(c1ccccc1)C1CCCC1 (stereo not drawn) | 2.86
94 | COc1ccc(OC)c(N(CC(=O)Nc2ccccc2Br)S(C)(=O)=O)c1 | 5.24
95 | COc1ccc(C(=O)NCc2nnc(SCC(=O)NCc3ccc4c(c3)OCO4)o2)cc1 | 5.83
96 | CCCn1c2ccccc2c2cnn(CC(=O)N(Cc3ccco3)C3CCCC3)c(=O)c21 | -2.21
97 | Clc1ccc(-c2noc3ncnc(NCCN4CCOCC4)c23)cc1 | -2.19
98 | Cc1ccc(-c2csc(/C(C#N)=C/c3ccccc3[N+](=O)[O-])n2)c(C)c1 | -2
99 | CC1CC(C)CN(CCCNC(=O)CN(C)c2nnc(N3CCCC3=O)s2)C1 (stereo not drawn) | -6.99
100 | COc1cccc(NC(=O)C(C)Oc2cccc(C)c2)c1 (stereo not drawn) | 8.38
101 | Nc1nc2nc(-c3cccs3)cc(C(F)(F)F)n2n1 | 0.032
102 | O=S1(=O)C(/C=N/CC2CCCO2)=C(O)c2sccc2N1Cc1ccc(F)cc1 (stereo not drawn) | -3.09
